About 230 (0.21%) of roughly 110,000 compounds showed an effect of 50% or more. The list shows a part of the results. Where a SMILES comes first, the peptide text is derived from it. The star is where a group is joined. Cbz = O=C(OCc1ccccc1)*
target: DPAP1 (Plasmodium falciparum, UniProt Q8IIJ9); assay: primary screen, percent inhibition; read by cleavage of a fluorogenic dipeptide substrate; higher = more effect of the substance; parameters: species or system P. falciparum D10 trophozoite lysates; single well
Sequence (Q8IIJ9 whole entry, looked up): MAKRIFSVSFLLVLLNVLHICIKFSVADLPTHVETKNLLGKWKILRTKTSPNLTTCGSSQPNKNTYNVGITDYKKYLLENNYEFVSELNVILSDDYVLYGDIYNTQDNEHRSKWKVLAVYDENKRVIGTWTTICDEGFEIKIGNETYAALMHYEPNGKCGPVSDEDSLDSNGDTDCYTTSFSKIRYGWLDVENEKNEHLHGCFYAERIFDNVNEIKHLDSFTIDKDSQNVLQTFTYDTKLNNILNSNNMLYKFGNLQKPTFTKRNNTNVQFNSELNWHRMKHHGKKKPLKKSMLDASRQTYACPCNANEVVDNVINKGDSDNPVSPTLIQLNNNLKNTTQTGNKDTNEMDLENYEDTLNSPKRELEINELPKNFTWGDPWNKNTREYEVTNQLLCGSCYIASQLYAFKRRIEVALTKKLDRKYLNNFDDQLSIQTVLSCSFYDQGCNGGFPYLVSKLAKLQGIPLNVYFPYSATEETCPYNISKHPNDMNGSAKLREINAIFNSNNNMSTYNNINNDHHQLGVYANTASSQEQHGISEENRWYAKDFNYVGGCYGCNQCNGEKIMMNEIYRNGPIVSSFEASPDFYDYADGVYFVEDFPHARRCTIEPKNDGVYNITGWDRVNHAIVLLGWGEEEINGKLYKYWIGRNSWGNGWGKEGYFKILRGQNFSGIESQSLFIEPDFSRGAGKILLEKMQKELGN
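Note: 30 min substrate incubation versus DMSO and 10 µM JCP410 controls.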

Row | Structure (SMILES) | % Inhibition @ 10 uM
1 | CCN1CCCC1CNC(=O)C12CC3CC(CC(C3)C1)C2 (centres unmarked) | -1.66%
2 | Cc1ccc(CNC(=O)Cn2ncc3c4ccccc4n(C)c3c2=O)cc1 | -11.6%
3 | CCOC(=O)C1CCCN(Cc2cccc(F)c2)C1 (centres unmarked) | 1.55%
4 | CN1CCc2nc3sc4c(=O)[nH]c(=O)[nH]c4c3c(-c3ccccc3)c2C1 | -1.61%
5 | O=C(NCCCN1CCOCC1)c1ccc(CS(=O)(=O)c2ccc(Br)cc2)o1 | -1.28%
6 | COc1ccc(C2CC(=O)c3cnc(NCCc4ccccc4)nc3C2)cc1 (centres unmarked) | -2.98%
7 | CC(=O)c1cccc(-n2c(CCC(=O)O)ccc2-c2cccs2)c1 | -3.13%
8 | Cc1ccc(CS(=O)(=O)CCC(=O)NCc2ccc3c(c2)OCO3)cc1 | -6.75%
9 | CC(C)(C)c1ccc(C2=N/C(=C\c3coc4ccccc4c3=O)C(=O)O2)cc1 | -0.972%
10 | CN(C)Cc1c(O)ccc2oc(Cc3ccccc3)cc12 | -1.97%
11 | Cc1cccc(C)c1N(CC(=O)N1CCN(c2ccc(F)cc2)CC1)S(C)(=O)=O | 3.72%
12 | O=C(Nc1ccccc1Oc1ccccc1)C1CCCC1 | -6.57%
13 | Cc1ccccc1-c1noc(-c2nnn(-c3ccc(C(C)C)cc3)c2N)n1 | -3.88%
14 | CCn1c(=O)c2sccc2n2c(CCCC(=O)NCc3ccccc3Cl)nnc12 | 3.47%
15 | COc1ccc(NC(=O)C(N)=O)c(OC)c1 | 4.54%
16 | CCC(C)NC(=O)c1ccc(C(=O)NC(C)CC)nc1 (centres unmarked) | 2.48%
17 | CCC(C)NC(=O)C1CCN(C(=O)c2ccc(-n3c(C)cc4ccccc43)s2)CC1 (centres unmarked) | -1.19%
18 | CCc1ccc(OCC(=O)Nc2sc(C)c(C)c2C(N)=O)c(Br)c1 | -5.14%
19 | COc1cccc(CNC(=O)CCNS(=O)(=O)c2ccc3[nH]c(-c4ccccc4)nc3c2)c1 | -5.61%
20 | COc1ccc(C2C3=C(O)CC(C)(C)CC3=Nc3ccccc3N2C(C)=O)cc1OC (centres unmarked) | -2.53%
21 | CCCSc1ncc(Cl)c(C(=O)N(Cc2ccc(C(C)C)cc2)C2CCS(=O)(=O)C2)n1 (centres unmarked) | 1.25%
22 | CCOc1ccc(C(=O)N2CCC(Cc3ccccc3)CC2)cc1OCC | -0.053%
23 | O=C(NCCc1ccc(Cl)cc1)C1CCC(CNS(=O)(=O)c2ccccc2)CC1 (centres unmarked) | 5.47%
24 | Cc1ccc(Cl)cc1NC(=O)c1cnccn1 | 5.31%
25 | NC(=O)CSc1nc2c(c(=O)n1Cc1ccco1)C1(CCCCC1)Cc1ccccc1-2 | 1.96%
26 | CC(NC(=O)C(C)NC(=O)CNC(=O)OCc1ccccc1)C(=O)O (stereo not drawn) (Cbz-Gly-Ala-Ala-OH; configuration not given here) | 3.25%

Row | Structure (SMILES) | % Inhibition @ 10 uM
27 | Cc1ccc2cnn(CC(=O)N3CCN(C)CC3)c2c1 | -1.11%
28 | CCCCN(C)CCNC(=O)NCc1noc2ccc(C)cc12 | 0.568%
29 | O=C(OCc1ccccc1)/C(=C/c1c[nH]c2ccccc12)[N+](=O)[O-] | 4.93%
30 | N#Cc1c2n(c3c(SCc4ccc(Cl)cc4)ncnc13)CCCCC2 | -4.21%
31 | O=C1N/C(=C\c2ccc(OCc3ccc(F)cc3)cc2)C(=O)N1Cc1ccc(Cl)cc1 | -3.06%
32 | CCN(CC)C(=O)C1CCCN(CC2CC3C=CC2C3)C1 (centres unmarked) | 5.03%
33 | CC1CCC(N2CC(=O)N(CCc3ccccc3)C(c3ccc(F)cc3)C2=O)CC1 (centres unmarked) | 1.27%
34 | CNC(=O)CN(c1cc(Cl)ccc1OC)S(=O)(=O)c1ccc(OC)c(OC)c1 | -1.95%
35 | COc1ccccc1-c1nc(S(=O)(=O)c2ccccc2)c(N2CCOCC2)o1 | -8.83%
36 | CN(Cc1ccccc1)Cc1nc2c(c(=O)n(C)c(=O)n2C)n1CCc1ccccc1 | -7.05%
37 | CC(=O)N/C(=C\c1ccc(OC(C)=O)cc1)C(=O)Nc1ccccc1C#N | -0.274%
38 | CCOc1ccccc1NC(=O)c1cc(Cl)ccc1OC | 0.235%
39 | Cc1cccc(N(CC(=O)NC(C(C)C)C(C)C)S(C)(=O)=O)c1C | 4.57%
40 | N#C/C(=C\c1ccco1)c1nc(-c2ccc(F)cc2)cs1 | 4.33%
41 | CCN(CC)c1nc(Cl)nc(NC(C)(C)C)n1 | 2.6%
42 | O=C(CCN1N=C(c2ccccc2)CCC1=O)NCc1ccc(F)cc1 | -9.35%
43 | COc1cc2c(cc1OC)C(C(=O)Nc1cnc3ccccc3c1)C1c3ccccc3CCN1C2=O (centres unmarked) | 1.9%
44 | OCCNCc1cc(Br)ccc1OCc1ccc(Cl)cc1 | -6.92%
45 | Cc1ccccc1-c1nnc2sc(NC(=O)C3CCCCC3)nn12 | -0.361%
46 | COc1cc(CN2CCN(Cc3ccc(C)cc3C)CC2)cc(OC)c1OC | 13.5%
47 | Cn1c(C(=O)N2CCC(C(=O)O)CC2)cc2sccc21 | 0.0882%
48 | CCC(C)NCCC(c1ccccc1)c1ccccc1O (centres unmarked) | -3.74%
49 | COc1cc(OC)cc(C(=O)NCCSc2ccccc2)c1 | -5.03%
50 | COc1ccc(NC(=O)CCC(=O)O)cc1 | -1.86%
51 | CSc1ccc(Cl)c(C(=O)NCCOc2cccc3cccnc23)c1 | -2.05%
52 | Fc1ccc(N2N=C(c3cccs3)CC2c2cccs2)cc1 (centres unmarked) | 0.219%

Row | Structure (SMILES) | % Inhibition @ 10 uM
53 | CC1CCc2c(C(=O)NCc3ccccc3Cl)csc2C1 (centres unmarked) | -3.21%
54 | Cc1ccc(S(=O)(=O)N(CC(=O)Nc2ccc3c(c2)OCCO3)c2cccc(Cl)c2)cc1 | 1.67%
55 | CC(=O)Nc1ccc(S(=O)(=O)Nc2cc(Cl)ccc2Cl)cc1 | 3.05%
56 | O=C(NCc1ccccc1)c1nc2ccccc2s1 | 5.17%
57 | CC(C)SC1=NSC2=NC(=O)/C(=C\c3ccc(Br)o3)C(=N)N21 | -5.47%
58 | CN1CCCN(Cc2ccsc2)CC1 | -0.294%
59 | CCOC(=O)C1CCCCN1Cc1ccc(Br)cc1 (centres unmarked) | -3.65%
60 | CCOC(=O)N1CCC(Nc2nc3ccccc3n3nnnc23)CC1 | 4.33%
61 | CC(C)C(NS(=O)(=O)c1cccc2nsnc12)C(=O)N1CCn2c1nc1ccccc12 (centres unmarked) | -2.25%
62 | N#Cc1ccc(NC(=O)CSc2ccc(Br)cc2)cc1 | -1.92%
63 | COc1ccc2cc(-c3csc(NC(=O)CCC(=O)NCc4ccc(C)o4)n3)c(=O)oc2c1 | 0.569%
64 | CC(c1ccccc1)N1CCC(=O)C2=C1CCCC2 (centres unmarked) | 2.54%
65 | CC1(C)Cc2ccccc2C(NCC(=O)O)=N1 | 4.3%
66 | CCOC(=O)C1CCCN(Cc2cc(Br)cs2)C1 (centres unmarked) | -0.507%
67 | CNCC(=O)N1c2ccccc2CCc2ccc(NC(=O)OC)cc21 | -0.736%
68 | COc1ccc(OC)c(NC(=O)CC(c2ccccc2)c2ccccc2)c1 | -5.69%
69 | Cc1cccc(C(=O)Nc2cccnc2Cl)c1 | -1.61%
70 | Cc1ccc2c(CNC3CCCCCC3)c(C(=O)O)n(Cc3ccc(F)cc3)c2c1 | 4.67%
71 | CC(=O)Nc1ncc2c(n1)CC(c1ccc(C)cc1)CC2=O (centres unmarked) | -2.89%
72 | O=C1C2CC=C(Cl)CC2C(=O)N1CCO (centres unmarked) | 29.2%
73 | COc1ccc(OC)c(NC(=O)CN(c2cc(Cl)ccc2C)S(C)(=O)=O)c1 | 0.389%
74 | Cc1cc(C)n2nc(NC(=O)C3CCCO3)nc2n1 (centres unmarked) | 14.8%
75 | CC(CCc1ccccc1)NC(=O)Cn1c(=O)c2cccn2c2cccnc21 (centres unmarked) | -8.52%
76 | Cc1cc(C)n(S(=O)(=O)c2ccccc2)c(=O)n1 | -5.33%
77 | Fc1ccccc1N1CCN(Cc2c(F)cccc2Cl)CC1 | 2.1%
78 | O=C1CSC(c2ccccc2)N1CCc1ccccc1 (centres unmarked) | -5.65%

Row | Structure (SMILES) | % Inhibition @ 10 uM
79 | CCOc1ccc(NS(=O)(=O)c2ccc(OC)cc2)cc1 | 5.12%
80 | CC(C)(C)c1cc(C(=O)CSc2nnc(Nc3ccccc3)n2-c2ccccc2)cc(C(C)(C)C)c1O | 1.27%
81 | CCOc1cc(C2C3=C(CC(C)(C)CC3=O)OC3=C2C(=O)CC(C)(C)C3)ccc1O | -3.69%
82 | Clc1ccccc1N1CCN(C2CCN(CCc3ccccc3)CC2)CC1 | -3.27%
83 | Cc1ccc(S(=O)(=O)N(CC(=O)N2CCOCC2)Cc2ccccc2)cc1 | -3.83%
84 | OCCn1c(-c2ccc(F)cc2)cs/c1=N\c1ccc(F)cc1 | 2.73%
85 | O=S(=O)(Nc1ccc2c(c1)CCC2)c1cccc2cccnc12 | -2.97%
86 | COc1ccc(Cl)cc1C(=O)N1CCN(c2cccc(Cl)c2)CC1 | -0.795%
87 | Cn1c2c(c(=O)n(C)c1=O)CN(CCN1CCNCC1)CN2 | -5.23%
88 | CC(C)N(C(=O)C1CCCCC1C(=O)O)C(C)C (centres unmarked) | -2.92%
89 | CC(C)(C)C(=O)NC(=S)N1CCOCC1 | -6.44%
90 | CC(C(=O)NCCC1=CCCCC1)N1C(=O)c2ccccc2C1=O (centres unmarked) | 1.37%
91 | O=C(NCCc1cccc(Cl)c1)c1cccnc1 | 3.95%
92 | COC(=O)c1sccc1NC(=O)CN1CCOCC1 | -0.403%
93 | COc1ccc(Br)cc1/C=C1\N=C(c2cccc(C)c2)OC1=O | 4.35%
94 | CCOc1ccccc1C1C(C(=O)OC)=CN(CCC23CC4CC(CC(C4)C2)C3)C=C1C(=O)OC | -1.24%
95 | COc1ccccc1-c1cc(=O)n(CC(=O)N2CCC(C(N)=O)CC2)c2c1CCCC2 | 3.59%
96 | CC1(C)CC2(CCO1)NCCN1C(=O)CSC12 (centres unmarked) | 1.4%
97 | CC(C)(C)c1ccc(C(=O)Nc2cccc(C#N)c2)cc1 | -1.51%
98 | O=C(O)CC(NC(=O)C1CCCCC1)c1ccc(Cl)cc1 (centres unmarked) | -6.42%
99 | Oc1nc(COc2nsnc2N2CCOCC2)nc2ccccc12 | 3.68%
100 | COc1cc(-c2cc(-c3ccc(F)cc3)nc(N)c2C#N)ccc1O | 8.44%
101 | C=C(C)CN(CC)Cc1ccc(-c2ccc([N+](=O)[O-])cc2)o1 | 1.9%
